Source: the supplement of paper PMC12217912
The list shows a part of the results. Sequences were assembled here from the parent chain. Values near 0.05 are background.

B1: TEV protease; numbered along this chain (parent)
chain: MGESLFKGPRDYNPISSSICHLTNESDGHTTSLYGIGFGPFIITNKHLFRRNNGTLVVQSLHGVFKVKDTTTLQQHLVDGRDMIIIRMPKDFPPFPQKLKFREPQREERICLVTTNFQTKSMSSMVSDTSCTFPSGDGIFWKHWIQTKDGQCGSPLVSTRDGFIVGIHSASNFTNTNNYFTSVPKNFMELLTNQEAQQWVSGWRLNADSVLWGGHKVFMVKPEEPFQPVKEATQL

Variants of: B1
Assay: raw area under fraction-flipped curve 0-4 h after induction (AUC4h, not background-subtracted), DNA-recorder readout of cleavage of the substrate (dimensionless); higher = more cleavage of the substrate by the protease variant
Conditions: temperature: 34 °C; time window: 0-4 h after rhamnose induction
Method: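 In vivo DNA recorder in E. coli TOP10(DE3) ΔrhaA at 34 °C. Each TEVp single-site mutant (parent TEVp 0) is paired with a single-site variant of the 7-mer TEVs (canonical ENLYFQ|S). The substrate sits between flexible linkers in a Bxb1-sfGFP-TEVs-SsrA fusion, so cleavage stabilises Bxb1 and speeds flipping of a recombination array, read by NGS. The value is the raw area under the fraction-flipped curve over 0-4 h after rhamnose induction (AUC4h), with ≥20 reads per time point. It is not background-subtracted; inactive controls average about 0.047.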
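Further: Bxb1 expression induced with 0.2% (w/v) L-rhamnose at OD600 near 0.5, cultures sampled hourly, flipped fraction per protease–substrate barcode pair counted by paired-end Illumina sequencing.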

Row | Variant | area with substrate ENLAFQS | area with substrate ENLDFQS | area with substrate ENLEFQS | area with substrate ENLFFQS | area with substrate ENLHFQS | area with substrate ENLIFQS | area with substrate ENLKFQS | area with substrate ENLLFQS | area with substrate ENLMFQS | area with substrate ENLNFQS | area with substrate ENLQFQS | area with substrate ENLRFQS | area with substrate ENLSFQS | area with substrate ENLWFQS | area with substrate ENLPFQS | area with substrate ENLVFQS | area with substrate ENLGFQS | area with substrate ENLCFQS | area with substrate ENLTFQS
1 | P14T | 0.0253 | 0.0678 | 0.0671 | 0.0983 | 0.0626 | 0.0817 | 0.0815 | 0.0835 | 0.0462 | 0.0525 | 0.077 | 0.0733 | 0.0751 | 0.0782 |  |  |  |  | 
2 | P14Y | 0.0589 | 0.0668 | 0.0836 | 0.0727 | 0.0729 | 0.0772 | 0.0709 | 0.0535 |  | 0.0591 | 0.0646 |  |  | 0.0652 | 0.0481 | 0.0839 |  |  | 
3 | I15D | 0.0577 | 0.0552 | 0.0413 | 0.0645 | 0.0556 | 0.061 | 0.0716 |  | 0.0485 | 0.0542 | 0.0423 | 0.0618 | 0.0641 | 0.0567 | 0.0571 | 0.0587 | 0.0519 |  | 
4 | I15E | 0.0516 | 0.0513 | 0.0542 | 0.063 | 0.0156 | 0.0594 | 0.0626 | 0.0558 | 0.0614 | 0.0604 | 0.0535 |  | 0.0408 | 0.0565 | 0.0533 | 0.0624 | 0.0621 | 0.0555 | 0.0595
5 | I15Q | 0.0519 | 0.061 |  | 0.091 | 0.0639 | 0.0704 | 0.0798 | 0.0661 |  | 0.0602 |  | 0.0598 | 0.0636 |  | 0.0646 | 0.0716 | 0.0681 | 0.0702 | 
6 | I19K | 0.0473 | 0.052 | 0.0569 | 0.0644 |  | 0.0568 | 0.0599 |  |  | 0.057 | 0.0442 | 0.0636 | 0.0457 | 0.0559 | 0.0523 | 0.0641 | 0.0772 |  | 
7 | I19P | 0.0522 | 0.0388 | 0.0488 | 0.0494 | 0.0503 | 0.0448 | 0.0404 | 0.0475 | 0.0571 | 0.0482 | 0.0512 | 0.0432 | 0.047 | 0.05 | 0.0549 | 0.048 | 0.0381 | 0.0414 | 
8 | I19V | 0.0637 | 0.0747 | 0.0591 | 0.0813 | 0.0665 |  | 0.073 | 0.0764 | 0.0763 | 0.0691 |  | 0.0825 | 0.0665 |  |  |  |  | 0.069 | 0.0719
9 | I19Y | 0.0541 | 0.0533 |  | 0.046 | 0.0323 | 0.0551 | 0.0468 | 0.0568 |  | 0.0448 |  | 0.0735 | 0.0513 | 0.0534 | 0.0538 |  | 0.0562 | 0.0326 | 
10 | C20N | 0.0553 | 0.0528 | 0.0482 | 0.0579 | 0.0525 | 0.0477 | 0.073 | 0.0399 |  | 0.0515 | 0.0475 | 0.0393 | 0.0433 | 0.0616 |  | 0.0472 | 0.0494 |  | 
11 | C20Q | 0.0346 | 0.0531 | 0.069 | 0.046 |  |  | 0.0676 | 0.0474 |  | 0.0551 | 0.0434 |  | 0.0365 |  |  | 0.0743 |  |  | 
12 | H21A | 0.0594 | 0.0638 | 0.0638 | 0.0763 | 0.0689 | 0.0572 | 0.0998 |  | 0.0748 | 0.0565 | 0.0698 |  | 0.052 | 0.0707 | 0.0681 | 0.0723 | 0.0655 |  | 0.0607
